From PubChem BioAssay AID540317 (National Center for Advancing Translational Sciences (NCATS), 2011)
“And” between values parts separate entries of the source, which are not always exact repeats. Identical values can stand only once. Out of some 390,000 compounds screened, about 2,200 (0.56%) were called active. This list was built around the results that the source calls inconclusive (neither active nor inactive); the mix of calls is not that of the screen. Calls come from the whole dose curve; as a rule, active = well fitted inhibition curve with a large enough effect; inconclusive = small, poorly fitted or top-dose-only effect; inactive = no such curve, though single readings can be large or run the other way. Potencies beside an inconclusive call are fits to weak or partial responses and may not hold up.

The compounds below were run against Chromobox protein homolog 1 (Homo sapiens) (UniProt P83916) (assay: HTS for Inhibitors of HP1-beta Chromodomain Interactions with Methylated Histone Tails). Conditions: AlphaScreen HP1-beta / biotin-H3K9me3 peptide binding; series mostly up to 114 µM.
Sequence of UniProt P83916 (P83916 whole entry, looked up): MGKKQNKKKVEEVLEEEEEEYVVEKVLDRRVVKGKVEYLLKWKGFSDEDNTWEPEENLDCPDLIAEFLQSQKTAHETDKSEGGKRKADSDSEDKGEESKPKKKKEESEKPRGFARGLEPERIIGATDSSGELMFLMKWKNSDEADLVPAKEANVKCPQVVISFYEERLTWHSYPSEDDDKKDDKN
Procedure, shortened: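 HP1-beta protein (50 nM final) preincubated 30 min at room temperature with biotinylated H3(1-18)K9me3 peptide (50 nM) in PBS pH 7.4, 0.01% Tween-20, then compound added for 30 min. AlphaScreen streptavidin donor/nickel chelate acceptor beads (10 ug/mL final), 30 min dark, luminescence read.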
Note: nearly all actives have a fitted effect of over 70% in size.
Potency is the fitted concentration of half-maximal effect; tags give direction and shape of the fitted curve.

Row | SMILES | Potency
1 | CC1=C(c2ccc(C)cc2)S(=O)(=O)N(Cc2ccc(C(=O)NCc3ccccc3)cc2)C1=O | inconclusive: 89.1 µM [inhibitor, partial curve, poor fit]
2 | Cc1ccccc1C(=O)Nc1sc(C)c(C)c1C(=O)c1ccccc1 | inconclusive: 20 µM [inhibitor, single point]
3 | O=C(/C=C/c1ccc([N+](=O)[O-])cc1)Nc1cccnc1 | inactive
4 | COc1ccccc1N1CCN(C(C)C(=O)N2CC(C)OC(C)C2)CC1 (configuration not stated) | inconclusive: 14.1 µM [inhibitor, full curve, poor fit]
5 | Cc1ccc(-c2nc(C#N)c(NCc3cccc4c3OCO4)o2)cc1 | inconclusive: 20 µM [inhibitor, full curve]
6 | O=[N+]([O-])c1cccc(/C=N\N2CCN(Cc3ccccc3Cl)CC2)c1 | inconclusive: 39.8 µM [inhibitor, single point]
7 | O=C(/C=C/c1ccc([N+](=O)[O-])cc1)OCC(=O)N1CCOCC1 | inactive
8 | CCC1(C)Cc2c(C#N)c(N)sc(=S)c2CO1 (configuration not stated) | inconclusive: 39.8 µM [inhibitor, partial curve, poor fit]
9 | COC(=O)c1ccc(-c2ccco2)n1Cc1ccccc1Cl | inconclusive: 17.8 µM [inhibitor, full curve, poor fit]
10 | NS(=O)(=O)c1ccc(NC(=S)NCC2CCCO2)cc1 (configuration not stated) | inconclusive: 25.1 µM [inhibitor, single point]
11 | Cc1cc(OCCN2CCOCC2)ccc1Cl | inconclusive: 25.1 µM [inhibitor, full curve]
12 | CCOC(=O)c1c(/N=C/c2cc(OC)cc([N+](=O)[O-])c2O)sc(C)c1C | inconclusive: 50.1 µM [inhibitor, partial curve, poor fit]
13 | COc1ccc(CNCCNC(=O)c2ccco2)c(OC)c1OC | inconclusive: 15.8 µM [inhibitor, full curve, poor fit]
14 | Cc1ccc(-n2nc(C)c3c2OC(N)=C(C#N)C3c2ccco2)cc1 (configuration not stated) | active: 44.7 µM
15 | CCOc1cc(C2C(C(=O)OC)=C(C)NC3=C2C(=O)c2ccccc23)ccc1OC (configuration not stated) | inconclusive: 25.1 µM [inhibitor, partial curve]
16 | COc1ccc(OC)c(CN2CCN(S(=O)(=O)c3ccccc3)CC2)c1 | inconclusive: 56.2 µM [inhibitor, partial curve, poor fit]
17 | O=[N+]([O-])c1ccc(S(=O)(=O)N/N=C/c2cccs2)cc1 | inconclusive: 22.4 µM [inhibitor, partial curve, poor fit]
18 | Cc1ccc2oc(C(=O)N(Cc3ccc(N(C)C)cc3)CC3CCCO3)c(C)c2c1 (configuration not stated) | inconclusive: 14.1 µM [inhibitor, full curve] and inconclusive: 50.1 µM [inhibitor, partial curve]
19 | Cc1[nH]n(-c2ccccc2)c(=O)c1C(c1ccccc1[N+](=O)[O-])C(C#N)C#N (configuration not stated) | inactive
20 | CCC(C)NC(=S)N1CCN(Cc2ccccc2)CC1 (configuration not stated) | active: 79.4 µM
21 | O=[N+]([O-])c1nn(-c2ccc3c(c2)OCCO3)n(O)c1=NCCC1=CCCCC1 | inconclusive: 17.8 µM [inhibitor, full curve]

Row | SMILES | Potency
22 | CN(CC(=O)Nc1cccc(F)c1)C(=O)c1cc(-c2ccco2)nc2ccccc12 | active: 50.1 µM
23 | COc1ccc(NC(=S)N2CCN(c3ccc([N+](=O)[O-])cc3)CC2)cc1OC | inactive
24 | Cc1ccc(-n2c(Cc3cccn3C)nnc2SCC(=O)N2CCN(c3ccccc3)CC2)cc1 | inconclusive: 39.8 µM [inhibitor, partial curve, poor fit]
25 | CCCCC1(Br)C(=O)N(c2ccccc2)N(c2ccccc2)C1=O | inconclusive: 22.4 µM [inhibitor, partial curve, poor fit]
26 | S=c1[nH]nc(Nc2ccccc2)s1 | inconclusive: 20 µM [inhibitor, full curve, poor fit]
27 | CCn1c(SC)nnc1-c1nn(-c2ccccc2)ccc1=O | inconclusive: 89.1 µM [inhibitor, single point]
28 | Clc1ccccc1N1CCN(Cc2c[nH]c3ccccc23)CC1 | inconclusive: 79.4 µM [inhibitor, single point]
29 | CCOC(=O)c1c(N)sc2c1CCC(CC)C2 (configuration not stated) | inconclusive: 50.1 µM [inhibitor, partial curve]
30 | CCOC(=O)c1sc(NC(=O)CCCCl)nc1C | inactive
31 | CC(C)(C)c1nc(S(=O)(=O)c2ccc(Cl)cc2)c(N2CCOCC2)o1 | inconclusive: 89.1 µM [inhibitor, single point]
32 | Cc1cc(C)cc(NC(=O)CSc2nc3c([nH]c4ccccc43)c(=O)n2-c2ccc(F)cc2)c1 | inactive
33 | Cc1cc(C)cc(NS(=O)(=O)c2ccc(NC(=S)NC(=O)c3ccc(Br)o3)cc2)c1 | inconclusive: 14.1 µM [inhibitor, full curve]
34 | Clc1cccc(CN2CCc3c([nH]c4ccccc34)C2)c1 | inconclusive: 14.1 µM [inhibitor, full curve]
35 | C=CCOc1ccccc1CNc1ccc2c(c1)OCCO2 | inconclusive: 70.8 µM [inhibitor, partial curve]
36 | Cc1nc2ccccc2c(=O)n1NC(=O)c1cncc(Br)c1 | inactive
37 | S=C(NN=C(c1ccccc1)c1ccccn1)N(Cc1ccccn1)Cc1ccccn1 | inconclusive: 14.1 µM [inhibitor, partial curve, poor fit]
38 | COc1ccc(NC(=O)C23CC4CC(CC(Cl)(C4)C2)C3)cc1S(=O)(=O)N1CCOCC1 | inactive
39 | Brc1cc2c(cc1CSc1ncccn1)OCO2 | inactive
40 | Cc1ccc(C)n1-c1sc2c(c1C(=O)O)CCCC2 | inconclusive: 50.1 µM [inhibitor, partial curve]
41 | N#CC1=C2SCN(C3CCCCC3)CN2C(=O)CC1c1ccc(Br)cc1 (configuration not stated) | inconclusive: 11.2 µM [inhibitor, full curve]
42 | Cc1cccc(OCCCCNCc2ccccc2)c1 | inconclusive: 56.2 µM [inhibitor, partial curve, poor fit]
